The whole screen tested about 420,000 compounds, of which about 50,000 (12%) were called active. The shares of active, inactive and inconclusive entries below differ from those in the screen. Calls follow the shape of the dose curve; as a rule, active = well fitted inhibition curve with a large enough effect; inconclusive = small, poorly fitted or top-dose-only effect; inactive = flat fitted curve, though single readings scatter. Potencies of inconclusive entries are left out as doubtful fits.
Experiment: qHTS for Inhibitors of human tyrosyl-DNA phosphodiesterase 1 (TDP1): qHTS in cells in presence of CPT; also: nearly all actives have a fitted effect of over 55% in size
Settings: chicken DT40 Tdp1-/-;hTDP1 cells + 20 nM CPT, ATP luminescence, 48 h; activity change, negative = growth inhibition: at 46.2 µM (top of the series) unless noted
Procedure, shortened: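 Chicken DT40 Tdp1-/- cells stably complemented with human TDP1 were seeded at 400 cells/well in medium containing 20 nM camptothecin, exposed to pin-transferred compounds, and grown at 37 °C for at least 48 hr. Viability was read as ATP luminescence.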
For `Cc1ccc(NC(=O)CN2C(=O)CNC2=O)cc1`, the Potency was “inactive”. For `O=C(c1ccco1)N1CCC2(CC1)CN(c1ccccn1)C2`, the Potency was “inactive”. For `COc1ccc(C(C)=O)cc1CSc1nnc(SCc2cc(C(C)=O)ccc2OC)s1`, the activity change, negative = growth inhibition was inconclusive: -31.5% [inhibitor]. With `COc1cc2c(NC3CCN(C)CC3)nc(N3CCCN(C)CC3)nc2cc1OCCCN(C)C` the Potency was inconclusive [inhibitor, single point]. For `Cc1ccc(-c2ccc(CN3C(C)C(=O)N(Cc4cn(Cc5ccco5)nn4)CCS3(=O)=O)cc2)c(C)c1` (centres undefined), the Potency was inconclusive [inhibitor, single point]. In the case of `O=C(CSc1nc2nc3c(cc2c(=O)n1-c1ccccc1)CCCC3)Nc1ccccc1`, the Potency is reported as inconclusive [inhibitor, single point]. In the case of `CCCNc1nc2ccccc2c(=O)[nH]1`, the Potency is reported as active: 11.6 µM. With `CC(C)NC(=O)c1ccc2sc([C@@H]3O[C@H](CO)[C@H](O)[C@H](O)[C@H]3O)nc2c1` the Potency was “inactive”. For `O=C(CSc1nc2ccccc2nc1N1CCCCC1)Nc1ccc(F)cc1`, the Potency was “inactive”. In the case of `Cc1nc2ccccc2nc1CN1CCOc2ccc(C3(O)CCN(c4ccccc4F)CC3)cc2C1`, the Potency is reported as inconclusive [inhibitor, single point]. In the case of `CCCCC(=O)Nc1ccc2nc(SCC(=O)N3CCc4ccccc43)sc2c1`, the Potency is reported as active: 14.6 µM. With `COC(=O)c1ccccc1Nc1cc(C)nc2nc(C)nn12` the Potency was inconclusive [inhibitor, single point]. With `O=[N+]([O-])c1cccc(COc2ccc(CN3CCCC3)cc2)c1` the Potency was inconclusive [inhibitor, single point]. With `COCCNC(=O)C1CCCN(Cc2cccc(C(F)(F)F)c2)CC1` (centres undefined) the Potency was “inactive”. In the case of `CC(=O)Nc1ccc(NC(=O)c2oc3c(c2C)-c2nn(Cc4ccccc4Cl)cc2CC3)cc1`, the Potency is reported as active: 8.2 µM. In the case of `O=c1c2c([nH]c3ccccc13)CCCC2`, the Potency is reported as inconclusive [inhibitor, single point]. For `CCC(=O)N(CCC(c1ccc(C)cc1)c1ccco1)Cc1ccco1` (centres undefined), the Potency was inconclusive [inhibitor, single point]. For `CC1CCCC(C)N1CC(O)COC1CCC(C(C)(C)C)CC1` (centres undefined), the Potency was active: 23.1 µM. In the case of `O=C(Nc1ccnn1C1CCN(C/C=C/c2ccc(F)cc2)CC1)C1CCCC1`, the Potency is reported as inconclusive [inhibitor, single point]. In the case of `COCCCNC(=O)CCc1c(C)c2cc3c(C)coc3cc2oc1=O`, the Potency is reported as inconclusive [inhibitor, partial curve]. In the case of `COc1cc(CN2CCCCC2C(=O)Nc2ccc(Oc3ccccc3)nc2)ccc1O` (centres undefined), the Potency is reported as inconclusive [inhibitor, single point]. For `COc1ccc(Cn2c(O)c(C=Nc3ccc(OC)cc3)c3ccccc3c2=O)cc1`, the Potency was “inactive”. With `CCN(CC)S(=O)(=O)c1cccc(C(=O)Nc2cccc(C)c2)c1` the Potency was inconclusive [inhibitor, single point]. In the case of `CCCOCc1ccc(O)c2ncccc12`, the Potency is reported as active: 0.82 µM. For `COCCCN1C(=O)C(=O)/C(=C(/O)c2ccc(OCC(C)C)cc2)C1c1cccnc1` (centres undefined), the Potency was “inactive”. In the case of `COc1ccc(NC(=S)N(Cc2cccnc2)Cc2ccco2)cc1`, the Potency is reported as “inactive”. In the case of `COc1cccc(NC2=C(Cl)C(=O)OC2OC(=O)c2ccco2)c1` (centres undefined), the Potency is reported as active: 11.6 µM. With `O=C(CCc1ccccc1)Nc1ccc(Cl)cn1` the Potency was active: 5.8 µM. For `CCN(CC)S(=O)(=O)c1ccc(NC(=O)CSc2nnc(-c3ccc(F)cc3)o2)cc1`, the Potency was inconclusive [inhibitor, single point]. For `O=S(=O)(NCCC(c1ccc(F)cc1)c1ccco1)c1ccccc1` (centres undefined), the Potency was inconclusive [inhibitor, single point]. With `CCc1cccc(NC(=O)CCn2c(=O)c3cccn3c3cccnc32)c1` the Potency was “inactive”. With `COc1ccc(C(=O)Nc2ccc(NC(=O)c3ccccc3OC)nc2)cc1` the activity change, negative = growth inhibition was inconclusive: -27% [inhibitor]. In the case of `CCOc1ccc(-n2cc(-c3ccccc3)c3c(NCCc4ccccc4)ncnc32)cc1`, the Potency is reported as inconclusive [inhibitor, single point]. For `Cc1ccccc1Nc1cc(C(=O)NCc2ccco2)c2ccccc2n1`, the Potency was inconclusive [inhibitor, single point]. With `Cc1cccc(NC(=O)Cn2nc(-c3ccccc3)c3cnc4ccccc4c32)c1` the Potency was active: 16.4 µM. In the case of `COc1ccc(C(=O)O)cc1S(=O)(=O)Nc1ccccc1Cc1ccccc1`, the Potency is reported as “inactive”. For `Oc1ccccc1CNCCCN1CCOCC1`, the Potency was “inactive”. With `COc1ccc(C(=O)c2c(N)c(-c3nc(-c4ccc5c(c4)OCO5)cs3)c3ccccn23)cc1` the Potency was “inactive”. With `Cc1cc(OCC(=O)Nc2ccc(N3CCN(C(=O)c4ccco4)CC3)cc2)cc(C)c1Cl` the Potency was active: 9.2 µM. In the case of `O=C(NCCc1ccccc1)c1ccc(CS(=O)Cc2ccc(Cl)cc2)o1` (centres undefined), the Potency is reported as inconclusive [inhibitor, partial curve]. In the case of `Cc1ccc(CN(C(=O)c2ccc(Cl)c([N+](=O)[O-])c2)C2CCS(=O)(=O)C2)o1` (centres undefined), the Potency is reported as “inactive”. For `Cc1cc(C)nc(SCC(=O)N/N=C/c2cccs2)n1`, the Potency was “inactive”. With `N#Cc1nc(-c2ccc([N+](=O)[O-])cc2)oc1N1CCCCC1` the Potency was “inactive”. For `CCOc1ccc(-c2nc(N)ncc2-c2ccc(Cl)cc2)c(O)c1`, the Potency was inconclusive [inhibitor, single point]. For `COc1ccc(-c2c(C#N)c(SCC(=O)c3cc4ccccc4oc3=O)nc(C)c2C(=O)Nc2ccccc2)cc1`, the Potency was inconclusive [inhibitor, single point]. For `Nc1nc(OCC2CCCCC2)c2[nH]cnc2n1`, the Potency was “inactive”. With `Cc1ccc(C)c(S(=O)(=O)NCC(=O)Nc2ccc3c(c2)OCO3)c1` the Potency was “inactive”. With `COc1cc2c(cc1NC(=O)C(C)Sc1ccc(NC(C)=O)cc1)oc1ccccc12` (centres undefined) the Potency was inconclusive [inhibitor, single point]. In the case of `COc1ccc(Br)cc1/C=C/C(=O)Nc1c(C)cccc1C`, the Potency is reported as inconclusive [inhibitor, single point]. For `COc1ccc(C(=O)CN2CCN(c3cc(C)nc4ccccc34)CC2)cc1`, the Potency was active: 25.9 µM. With `CC(C)CC(=O)Nc1cccc2c1C(=O)N(c1ccccc1)C2=O` the Potency was “inactive”. For `Cc1cc(NC(=O)CCc2nc3cccnc3n2-c2ccccc2)ccc1Br`, the Potency was inconclusive [inhibitor, single point]. For `Fc1ccc(Oc2nc(-c3ccccc3)nnc2C(F)(F)F)cc1`, the Potency was inconclusive [inhibitor, single point]. For `CCOc1ccc(S(=O)(=O)Nc2ccccc2SC)c2cccnc12`, the Potency was inconclusive [inhibitor, single point]. For `Cc1ccc(Cl)cc1-c1ccc(C=Nc2ccc(N3CCOCC3)cc2)o1`, the Potency was inconclusive [inhibitor, partial curve]. In the case of `COc1ccc(C(C(=O)NCc2ccccc2)n2c(-c3ccncc3)nc3ccccc32)cc1` (centres undefined), the Potency is reported as inconclusive [inhibitor, single point]. With `Cn1ccc2c(-c3ccc4c(c3)OCCO4)cc3c(c21)C1CCC3C1` (centres undefined) the Potency was inconclusive [inhibitor, single point]. For `CCOC(=O)C1(CCc2ccccc2)CCN(C(=O)c2occc2C)CC1`, the Potency was inconclusive [inhibitor, single point]. With `O=C(Cc1ccccc1)Nc1ccccc1Oc1ccccc1` the Potency was inconclusive [inhibitor, single point]. For `O=C(c1ccccn1)N(Cc1ccco1)C1(C(=O)Nc2ccc(Br)cc2)CCCCC1`, the Potency was active: 16.4 µM. With `O=C(Nc1ccc(F)cc1F)C1CCN(c2ncccn2)CC1` the Potency was inconclusive [inhibitor, single point]. With `Cc1ccc(C)c(N2CCN(c3ncnc4c3nc3n4CCCC3)CC2)c1` the Potency was inconclusive [inhibitor, single point]. In the case of `O=C(CCCC(=O)N(CC(=O)NC1CCCC1)Cc1ccccc1)Nc1ccccn1`, the Potency is reported as “inactive”. In the case of `CCCN1CN(Cc2ccco2)c2nc3ccccc3n2C1`, the Potency is reported as active: 14.6 µM. In the case of `Cc1ccccc1Cn1ccc(NC(=O)CCSc2nc(-c3ccco3)cc(C(F)(F)F)n2)n1`, the Potency is reported as “inactive”. With `CCC(C)(C)n1nnnc1C(C(C)C)N(CCCO)Cc1cc2cc(C)ccc2[nH]c1=O` (centres undefined) the Potency was inconclusive [inhibitor, single point]. With `Cc1cc(=O)[nH]c(N/N=C/c2c(C)nn(-c3ccccc3Cl)c2Cl)n1` the Potency was inconclusive [inhibitor, single point]. For `CCCn1nnc(NC(=S)NC(=O)CC)n1`, the Potency was active: 23.1 µM. In the case of `O=C(NC1CCCCCCC1)c1ccc2c(c1)N(Cc1ccc(F)cc1)C(=O)CS2=O` (centres undefined), the Potency is reported as inconclusive [inhibitor, partial curve, poor fit]. With `Cc1ccccc1NC(=O)Cn1cc(C(=O)c2ccco2)c2ccccc21` the Potency was inconclusive [inhibitor, partial curve]. For `COc1ccc(OC)c(Nc2cc(C)c3ccccc3n2)c1`, the Potency was inconclusive [inhibitor, single point]. For `CCNC(=S)NNC(=O)c1cc(-c2cccc(OCC)c2)nc2ccccc12`, the Potency was active: 14.6 µM. In the case of `CCOC(=O)N1CCC(NC(=O)C(CC(C)C)NC(=O)C2CCC(C)CC2)CC1` (centres undefined), the activity change, negative = growth inhibition is reported as inconclusive: -37.7% [inhibitor]. With `O=C(CN1CCN(c2nc(-c3ccccc3)cs2)CC1)NNC(=O)c1ccc(Br)cc1` the Potency was inconclusive [inhibitor, single point].
% is scaled to controls: 0 for no effect and ±100 for the full control effect; potency is read from the fitted curve at half-maximal effect; tags tell the direction and shape of the fitted curve.
